Holding throughout (assay): pull-down; only the target purified
Test [1] concerns the target GST-CPE_(116–319) fusion protein (Clostridium perfringens) (UniProt P01558).
The target in test [2] is CPE_(194–319) (Clostridium perfringens) (UniProt P01558).
In test [3] the target is CPE_(194–309) (Clostridium perfringens) (UniProt P01558).

Chains of the proteins cited; added tags and fusions are not shown. Lines headed by an entry give the natural chain unless they say otherwise; changes in a name come on top. Residues count along the entry.
UniProt P01558: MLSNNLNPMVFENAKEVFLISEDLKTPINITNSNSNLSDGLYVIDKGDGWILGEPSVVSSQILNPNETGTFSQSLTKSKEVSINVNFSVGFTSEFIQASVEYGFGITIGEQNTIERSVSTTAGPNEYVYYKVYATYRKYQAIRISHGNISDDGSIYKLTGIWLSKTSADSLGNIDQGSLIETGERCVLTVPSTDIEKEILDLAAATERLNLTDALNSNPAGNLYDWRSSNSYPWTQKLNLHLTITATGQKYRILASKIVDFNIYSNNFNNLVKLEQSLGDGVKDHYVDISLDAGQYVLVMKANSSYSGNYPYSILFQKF
GST-CPE_(116–319) fusion protein: residues 116-319 of P01558
CPE_(194–319): residues 194-319 of P01558
CPE_(194–309): residues 194-309 of P01558
UniProt A0A0G2K2P5: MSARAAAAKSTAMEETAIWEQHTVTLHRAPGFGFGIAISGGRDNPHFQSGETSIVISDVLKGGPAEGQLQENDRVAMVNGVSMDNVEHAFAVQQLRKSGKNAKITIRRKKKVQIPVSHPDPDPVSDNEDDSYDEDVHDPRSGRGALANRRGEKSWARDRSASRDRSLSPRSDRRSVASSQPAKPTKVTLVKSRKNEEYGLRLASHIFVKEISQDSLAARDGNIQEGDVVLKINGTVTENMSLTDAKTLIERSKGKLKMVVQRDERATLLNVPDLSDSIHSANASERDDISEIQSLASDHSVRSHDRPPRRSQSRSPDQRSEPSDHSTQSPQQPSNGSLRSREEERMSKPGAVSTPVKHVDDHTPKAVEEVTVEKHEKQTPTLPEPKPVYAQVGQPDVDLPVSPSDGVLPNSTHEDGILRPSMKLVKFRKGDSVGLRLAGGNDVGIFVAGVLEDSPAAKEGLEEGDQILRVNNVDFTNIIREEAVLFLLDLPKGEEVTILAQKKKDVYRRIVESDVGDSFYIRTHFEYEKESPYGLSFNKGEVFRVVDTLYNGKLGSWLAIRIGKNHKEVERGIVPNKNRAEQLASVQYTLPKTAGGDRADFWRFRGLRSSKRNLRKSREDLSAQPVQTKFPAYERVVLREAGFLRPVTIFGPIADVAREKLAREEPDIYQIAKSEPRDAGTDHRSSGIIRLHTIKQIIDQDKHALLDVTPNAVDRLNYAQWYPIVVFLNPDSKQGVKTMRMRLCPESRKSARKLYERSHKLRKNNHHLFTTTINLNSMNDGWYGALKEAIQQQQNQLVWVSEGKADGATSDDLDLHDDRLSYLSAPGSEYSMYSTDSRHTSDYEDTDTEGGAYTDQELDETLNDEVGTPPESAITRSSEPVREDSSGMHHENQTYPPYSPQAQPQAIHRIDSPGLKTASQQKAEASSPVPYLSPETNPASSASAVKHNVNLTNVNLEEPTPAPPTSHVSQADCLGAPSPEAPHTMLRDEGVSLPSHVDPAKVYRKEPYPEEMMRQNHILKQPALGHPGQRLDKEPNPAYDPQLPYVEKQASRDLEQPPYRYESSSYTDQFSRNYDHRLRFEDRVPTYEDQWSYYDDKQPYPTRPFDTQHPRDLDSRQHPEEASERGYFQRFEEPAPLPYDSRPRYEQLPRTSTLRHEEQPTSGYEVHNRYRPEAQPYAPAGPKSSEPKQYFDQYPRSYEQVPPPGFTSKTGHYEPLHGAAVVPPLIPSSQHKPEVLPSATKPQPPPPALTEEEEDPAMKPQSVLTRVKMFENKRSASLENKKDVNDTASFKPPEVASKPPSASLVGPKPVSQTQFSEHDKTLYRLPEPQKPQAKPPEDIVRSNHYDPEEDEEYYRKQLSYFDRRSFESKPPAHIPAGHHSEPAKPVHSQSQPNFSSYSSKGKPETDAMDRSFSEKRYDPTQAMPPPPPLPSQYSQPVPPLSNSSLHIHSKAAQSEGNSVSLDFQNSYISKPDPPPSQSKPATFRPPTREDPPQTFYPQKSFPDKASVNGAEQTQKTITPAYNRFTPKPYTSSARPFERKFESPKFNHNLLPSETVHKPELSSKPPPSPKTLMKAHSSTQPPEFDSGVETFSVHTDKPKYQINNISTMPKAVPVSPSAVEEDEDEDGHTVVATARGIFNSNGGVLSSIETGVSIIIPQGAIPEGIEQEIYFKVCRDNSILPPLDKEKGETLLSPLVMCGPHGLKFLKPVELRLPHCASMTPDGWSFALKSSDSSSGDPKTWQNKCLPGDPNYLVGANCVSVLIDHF
UniProt Q9Z1L1: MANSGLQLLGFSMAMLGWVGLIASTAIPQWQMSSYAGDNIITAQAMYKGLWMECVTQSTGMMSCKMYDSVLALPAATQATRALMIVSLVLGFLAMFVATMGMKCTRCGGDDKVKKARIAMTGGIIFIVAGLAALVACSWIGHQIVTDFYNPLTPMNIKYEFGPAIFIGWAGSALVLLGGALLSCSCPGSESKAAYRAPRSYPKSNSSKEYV

No constants are given. Whether binding was seen depends on the method and setting. Binding seen in cells or lysates may run through a third protein. Some binding calls cover weakened binding; strength is not graded here.

Turning to ZO-1 (from UniProt A0A0G2K2P5 1-1765), in test [1], the binding entry was “no binding”.

In the case of Claudin-7 (from UniProt Q9Z1L1 1-211), the binding entry in test [1] was “binds”.

B1: Claudin-3 (protein, UniProt Q63400 1-219)
chain: MSMGLEITGTSLAVLGWLCTIVCCALPMWRVSAFIGSSIITAQITWEGLWMNCVVQSTGQMQCKMYDSLLALPQDLQAARALIVVSILLAAFGLLVALVGAQCTNCVQDETAKAKITIVAGVLFLLAAVLTLVPVSWSANTIIRDFYNPLVPEAQKREMGTGLYVGWAAAALQLLGGALLCCSCPPREKYAPTKILYSAPRSTGPGTGTGTAYDRKDYV
Consider B1, for which the binding result is listed as “binds” in test [1], “binds” in test [2] and “no binding” in test [3].

Source of the values: publication PMC2713237.
